SMILES strings stand for the structures. Whole data set: some 110,000 compounds, median “z-score” near -0.1, cut for the highest 2% near 2. The list shows a part of the results.

For 71 compounds, z-score results are on record in PubChem BioAssay AID488969 (Vanderbilt High Throughput Screening Facility, 2010).

In the experiment the target is Metabotropic glutamate receptor 8 (Rattus norvegicus) (UniProt P70579). Nature of the experiment: rat mGluR8 modulators via GIRK flux, primary screen, cell-based, thallium flux, HTS (AID 488969). Particulars: HEK293 rat mGluR8, GIRK (G protein-gated inwardly rectifying potassium channel) thallium flux, FluoZin2; at 10 µM; stronger effect = higher value; submaximal glutamate (EC20) added with thallium.
UniProt P70579, sequence (P70579 whole entry, looked up): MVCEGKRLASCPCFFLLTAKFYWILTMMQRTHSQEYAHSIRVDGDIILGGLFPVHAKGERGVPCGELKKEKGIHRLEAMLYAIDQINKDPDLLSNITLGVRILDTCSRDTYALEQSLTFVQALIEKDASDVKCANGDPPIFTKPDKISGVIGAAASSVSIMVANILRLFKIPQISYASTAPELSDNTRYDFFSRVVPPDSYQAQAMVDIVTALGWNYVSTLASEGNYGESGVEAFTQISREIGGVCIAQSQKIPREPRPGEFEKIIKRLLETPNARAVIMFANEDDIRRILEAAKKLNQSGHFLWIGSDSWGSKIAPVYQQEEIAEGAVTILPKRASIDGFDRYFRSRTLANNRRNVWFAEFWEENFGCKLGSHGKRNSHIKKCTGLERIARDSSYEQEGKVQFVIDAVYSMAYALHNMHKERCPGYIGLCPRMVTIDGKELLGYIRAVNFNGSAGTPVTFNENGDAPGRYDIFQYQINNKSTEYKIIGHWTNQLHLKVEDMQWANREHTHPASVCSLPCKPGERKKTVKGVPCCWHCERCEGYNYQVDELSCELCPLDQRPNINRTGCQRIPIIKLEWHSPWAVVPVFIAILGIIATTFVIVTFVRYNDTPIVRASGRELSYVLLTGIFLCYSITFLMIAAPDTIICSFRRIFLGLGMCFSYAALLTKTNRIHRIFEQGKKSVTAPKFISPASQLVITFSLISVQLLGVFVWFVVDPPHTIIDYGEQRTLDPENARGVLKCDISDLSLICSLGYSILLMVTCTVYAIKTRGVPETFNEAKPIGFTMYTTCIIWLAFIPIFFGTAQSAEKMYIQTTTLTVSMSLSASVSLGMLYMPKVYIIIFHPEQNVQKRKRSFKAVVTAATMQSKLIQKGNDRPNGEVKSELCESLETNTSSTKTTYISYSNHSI
`COc1ccc(-c2nnc(N3CCCCC3)c3ccccc23)cc1` yielded a z-score of -0.595. `CC(C)c1ccc(NC(=O)CSc2ncccc2C(=O)Oc2cccc([N+](=O)[O-])c2)cc1` displayed a z-score of -0.191.

As to `Cc1ccc(S(=O)(=O)N[C@@H](C)C(=O)N2CCC(C(=O)N3CCC[C@H]3C(=O)O)CC2)cc1`, the z-score was -0.249.

As for `CC(=O)Nc1cccc(S(=O)(=O)N2CCCCCC2)c1`, the z-score is -0.0871.

The compound `O=C(Nc1cccc2cccnc12)c1ccc(Br)o1` showed a z-score of 0.412.

`O=C(CCSc1nnc2ccccn12)Nc1ccc(F)cc1` came in with a z-score of 0.126. `c1ccc2[nH]c(NC3=NCCC3)nc2c1` returned a z-score of 0.96. Turning to `CC12CN3CC(C)(CN(C1)C3c1ccc3c(c1)OCO3)C2=O` (stereo unspecified), the z-score amounted to 0.444. In turn, `CCN(CC)C(=O)c1cnn(-c2ccccc2)c1NC(=O)c1cccs1` returned a z-score of -0.27. The compound `C=CCC(C)(NCc1ccccc1)c1ccco1` (stereo unspecified) showed a z-score of -0.0531. `Cc1cc(C)c(S(=O)(=O)N2CCN(CCO)CC2)c(C)c1`: the z-score was -0.769. Compound `Cc1ccc(NC(=O)/C(=C/c2cccc([N+](=O)[O-])c2)NC(=O)C2CCCCC2)c(C)c1` displayed a z-score of -0.0436. Consider `O=[N+]([O-])c1ccc(N2CCCC2)cc1NC(c1ccccc1)c1ccccc1`, for which the z-score is -1.03. `COc1ccc2nc(NC(=O)Cn3cnc4c(=O)n(C)c(=O)n(C)c43)sc2c1` yielded a z-score of 0.612.

Compound `CC(C)CNC(=O)C(=O)N/N=C/c1cccs1` yielded a z-score of 0.233.

As to `COc1ccc(/C=C/C(=O)NC2CCCCCCC2)cc1S(=O)(=O)N1CCOCC1`, the z-score is -0.052. As for `N#Cc1c2c(c(Nc3ccccc3)n3c1nc1ccccc13)CCC2`, the z-score is -0.313. With `Cc1ccc(/C=N/NC(=O)C2=NNC(c3ccccc3)(c3ccccc3)C2)c(O)c1`, the z-score is 0.221. The figure for `COc1ccc(-n2cnnc2)cc1` is 0.391. For the compound `Nc1nc(SCC(=O)NCc2ccccc2Cl)[nH]c(=O)c1NC(=O)c1ccccc1F`, the z-score is -0.478. As to `CCC(C(=O)c1ccccc1)N(C(=O)c1ccccc1Cl)N1C(=O)C2C3C=CC(C3)C2C1=O` (stereo unspecified), the z-score is -0.0769. `COc1ccc(Nc2nnc(SCC(=O)c3cc(C)n(CC4CCCO4)c3C)s2)cc1` (stereo unspecified) registered a z-score of -0.444. Turning to `CCOC(=O)c1oc2c(C)c(O)ccc2c(=O)c1-c1nncn1-c1ccccc1`, the z-score is -0.311. Compound `Cc1ccc(NS(=O)(=O)c2cc(C(=O)NCc3ccccn3)ccc2Cl)cc1` registered a z-score of -0.139. `CCOC(=O)CSc1nc(C)c(C(=O)OCC)s1`: the z-score is 0.58. `Cc1cccc(C)c1Nc1nnc(SCc2cc([N+](=O)[O-])cc3c2OCOC3)s1` came in with a z-score of -0.177.

With `COC(=O)c1c(C)n(-c2ccc(C)cc2)c2ccc(O)cc12`, the z-score was -0.121. In the case of `Cc1cc(C)n2ncc(C(=O)NCCc3ccccc3)c2n1`, the z-score is 0.497. Compound `O=C(COC(=O)c1ccccc1NC(=O)c1ccco1)NC1CCCCC1` gave a z-score of -0.275.

`CC(C)(C)NC(=O)COC(=O)Cc1ccc(Cl)cc1` had a z-score of 0.486. The figure for `COc1ccc(C2=CC(c3ccc(OC)c(OC)c3)NC(=S)N2)cc1` (stereo unspecified) is -0.0454. Regarding `Cc1oc(-c2ccccc2)cc1C(=O)Nc1ccccc1`, the z-score was 0.178. `CC(=O)c1ccc(NC(=O)c2cnn3ccccc23)cc1` came in with a z-score of -0.521. `CCCCC(=O)NC1=C(C(=O)OC)SCC1` yielded a z-score of 0.909. `COc1ccc2c(c1)CCCC21NC(=O)NC1=O` (stereo unspecified) registered a z-score of -0.347. For `Cc1nc2ccccn2c1/C(O)=C1\C(=O)C(=O)N(CCN2CCOCC2)C1c1ccncc1` (stereo unspecified), the z-score is -0.0476. The figure for `NC1=NS(=O)(=O)NC1c1ccc(Cl)cc1` (stereo unspecified) is 0.00171; for `COc1ccc(C(=O)/C=C/c2ccc(OC)c(COc3ccc(F)cc3)c2)cc1` it is -0.119. For the compound `Cc1cccc(Nc2nnc(-c3ccc(N4CCOCC4)c([N+](=O)[O-])c3)c3ccccc23)c1`, the z-score was -2.11. On to `CCC(C)NC(=O)CC(c1ccc(OC)cc1)n1cccc1` (stereo unspecified), for which the z-score is -0.148. On to `CC(C)NC(=O)NS(=O)(=O)c1cnccc1N1CCCCC1`, for which the z-score was 0.161. Turning to `CCCOc1ccc(N2C(=O)CC(NCCNc3ccc(S(=O)(=O)CC)cc3)C2=O)cc1` (stereo unspecified), the z-score amounted to 0.265.

Turning to `CC1CC2=C(C(=O)O1)C(c1ccccc1)Nc1ccccc1N2` (stereo unspecified), the z-score is -0.161. The figure for `CCC(C)(C)c1ccc(OCCN2C(=O)NC(C)(C)C2=O)cc1` is -0.0536; for `CCOC(=O)C1=C(c2ccccc2)O/C(=C(\C(=O)OC)C(F)(F)F)S1` it is -0.566. `COCCNC(=O)CNS(=O)(=O)c1ccc2nc(C)sc2c1` came in with a z-score of -0.46. In the case of `COCCn1c(C)cc(C(=O)COc2nc3ccccc3nc2C)c1C`, the z-score was -0.493.

Regarding `Cc1ccc(-c2nnc(NCc3nc4ccccc4[nH]3)c3ccccc23)cc1S(=O)(=O)N1CCCCC1`, the z-score is -0.412.

Turning to `Cc1ccccc1OCC(O)Cn1nnc2ccccc21` (stereo unspecified), the z-score is -0.244. In turn, `CCCCC(CC)C(=O)Nc1ccc(C#N)cc1` (stereo unspecified) returned a z-score of -0.113.

As for `CCN(CC)c1ccc(C(=O)OCC(=O)Nc2sccc2C#N)cc1`, the z-score is -0.224. `CCCc1nnc(NC(=O)c2ccncc2)s1`: the z-score was found to be 0.134.

Consider `CSCC[C@H](Nc1ncnc2sc(C)c(C)c12)C(=O)O`, for which the z-score is -0.154. `O=C(Nc1ccc2c(c1)OCO2)c1cnn2c(C(F)(F)F)cc(-c3ccco3)nc12` had a z-score of -0.403.

`CCCCNC(=O)c1onc(CSc2cccc(OC)c2)c1C(=O)O` came in with a z-score of -0.391. The figure for `O=C(NC(Cc1ccccc1)c1ccc2c(c1)OCCCO2)c1ccc(F)cc1` (stereo unspecified) is -0.339. With `CCOC(=O)c1c(NC(=O)CSc2nnc(N)s2)sc(C)c1-c1ccc(C)cc1`, the z-score is -0.388.

`COc1ccc(CNc2ccccc2SC)cc1OC` returned a z-score of -0.136. For `Cc1cc(/C([O-])=C(/C(=S)Nc2ccc(F)cc2)[n+]2ccccc2)c(C)n1-c1ccc(F)cc1` the value was -0.454; for `CN(CC(=O)N1CCc2ccccc21)S(=O)(=O)c1cccc2cccnc12`, -0.146; for `CC(=O)Nc1ccc(S(=O)(=O)NCCC(=O)Nc2ccc(C)c(Cl)c2)cc1`, -0.0921. With `O=C(COC(=O)c1cc(Cl)ccc1Cl)NCCN1C(=O)CSC1=O`, the z-score is -0.138. Turning to `CN(C)CCNc1oc(COc2ccc(Cl)cc2)nc1C#N`, the z-score worked out at 1.5. As to `CC(Oc1ccc(-c2ccccc2)cc1)C(=O)N1CCOCC1` (stereo unspecified), the z-score is -0.496. For the compound `Cc1nc(NCCCO)c(C#N)c2c1COC(C)(C)C2`, the z-score was 1.53. With `CCCC(=O)Nc1ccc2nc(SCC(=O)Nc3nccs3)sc2c1`, the z-score came out at 0.031. `CCN(CC)c1c([N+](=O)[O-])c(=O)sc2ccccc12` came in with a z-score of -0.00969. The figure for `CCCn1c2c(c(O)c(C(=O)NC)c1=O)CCCC2` is -0.476; for `CCOCCCNC(=O)C1CCCN1S(=O)(=O)c1ccc(Cl)cc1` (stereo unspecified) it is 0.113; for `O=C(Nc1nc(-c2ccccc2)ns1)c1cccs1` it is -1.46. The compound `Cc1ccc(S(=O)(=O)O/N=C2/CCCc3occc32)cc1` showed a z-score of -0.153.
